Test results taken from the supplement of paper PMC8728848.
The list shows a part of the results.

Assays:
Assay in all cases: glycan array binding signal (z-score within array); higher = stronger binding
Details in all cases: glycan notation: IUPAC condensed, linker removed; mutation: Y228W
Neu5Ac(a2-8)Neu5Ac = target: Neu5Ac(a2-8)Neu5Ac
Procedure, shortened: (§1)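 The Consortium for Functional Glycomics database supplied 3228 glycan arrays, of which those lacking an available protein sequence were dropped. The binding signal, a within-array Z-score, was averaged across arrays of the same protein sequence and across linkers. Negative scores can be read as non-binding.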

[1] = target: Neu5Ac(a2-8)Neu5Ac(a2-3)Gal(b1-3)GalNAc(b1-4)[Neu5Ac(a2-3)]Gal(b1-4)Glc
Procedure, shortened: as §1

[2] = target: Neu5Ac(a2-8)Neu5Ac(a2-3)Gal(b1-3)GalNAc(b1-4)[Neu5Ac(a2-8)Neu5Ac(a2-3)]Gal(b1-4)Glc
Procedure, shortened: as §1

[3] = target: Neu5Ac(a2-8)Neu5Ac(a2-3)Gal(b1-4)Glc
Procedure, shortened: as §1

[4] = target: Neu5Ac(a2-8)Neu5Ac(a2-3)Gal(b1-4)GlcNAc
Procedure, shortened: as §1

[5] = target: Neu5Ac(a2-8)Neu5Ac(a2-3)[Gal(b1-3)GalNAc(b1-4)]Gal(b1-4)Glc
Procedure, shortened: as §1

[6] = target: Neu5Ac(a2-8)Neu5Ac(a2-3)[GalNAc(b1-4)]Gal(b1-4)Glc
Procedure, shortened: as §1

[7] = target: Neu5Ac(a2-8)Neu5Ac(a2-8)Neu5Ac
Procedure, shortened: as §1

[8] = target: Neu5Ac(a2-8)Neu5Ac(a2-8)Neu5Ac(a2-3)Gal(b1-4)Glc
Procedure, shortened: as §1

[9] = target: Neu5Ac(a2-8)Neu5Ac(a2-8)Neu5Ac(a2-3)[Gal(b1-3)GalNAc(b1-4)]Gal(b1-4)Glc
Procedure, shortened: as §1

[10] = target: Neu5Ac(a2-8)Neu5Ac(a2-8)Neu5Ac(a2-3)[GalNAc(b1-4)]Gal(b1-4)Glc
Procedure, shortened: as §1

[11] = target: Neu5Ac(a2-8)Neu5Ac(a2-8)Neu5Ac(a2-8)Neu5Ac(a2-3)[GalNAc(b1-4)]Gal(b1-4)Glc
Procedure, shortened: as §1

[12] = target: Neu5Ac(a2-8)Neu5Gc(a2-3)Gal(b1-4)GlcNAc
Procedure, shortened: as §1

[13] = target: Neu5Ac(b2-6)Gal(b1-4)GlcNAc
Procedure, shortened: as §1

Neu5Ac(b2-6)GalNAc = target: Neu5Ac(b2-6)GalNAc
Procedure, shortened: as §1

[14] = target: Neu5Ac9Ac(a2-3)Gal(b1-3)GlcNAc
Procedure, shortened: as §1

[15] = target: Neu5Ac9Ac(a2-3)Gal(b1-4)GlcNAc
Procedure, shortened: as §1

[16] = target: Neu5Ac9Ac(a2-6)Gal(b1-4)GlcNAc
Procedure, shortened: as §1

[17] = target: Neu5Gc(a2-3)Gal(b1-3)GlcNAc
Procedure, shortened: as §1

[18] = target: Neu5Gc(a2-3)Gal(b1-3)[Fuc(a1-4)]GlcNAc
Procedure, shortened: as §1

Neu5Gc(a2-3)Gal(b1-4)Glc = target: Neu5Gc(a2-3)Gal(b1-4)Glc
Procedure, shortened: as §1

[19] = target: Neu5Gc(a2-3)Gal(b1-4)GlcNAc
Procedure, shortened: as §1

[20] = target: Neu5Gc(a2-3)Gal(b1-4)GlcNAc(b1-3)Gal(b1-4)GlcNAc(b1-2)Man(a1-3)[Neu5Gc(a2-3)Gal(b1-4)GlcNAc(b1-3)Gal(b1-4)GlcNAc(b1-2)Man(a1-6)]Man(b1-4)GlcNAc(b1-4)GlcNAc
Procedure, shortened: as §1

[21] = target: Neu5Gc(a2-3)Gal(b1-4)[Fuc(a1-3)]GlcNAc
Procedure, shortened: as §1

[22] = target: Neu5Gc(a2-6)Gal(b1-4)GlcNAc
Procedure, shortened: as §1

Neu5Gc(a2-6)GalNAc = target: Neu5Gc(a2-6)GalNAc
Procedure, shortened: as §1

[23] = target: Neu5Gc(a2-8)Neu5Ac(a2-3)Gal(b1-4)GlcNAc
Procedure, shortened: as §1

[24] = target: Neu5Gc(a2-8)Neu5Gc(a2-3)Gal(b1-4)GlcNAc
Procedure, shortened: as §1

[25] = target: Neu5Gc(a2-8)Neu5Gc(a2-3)Gal(b1-4)GlcNAc(b1-3)Gal(b1-4)GlcNAc
Procedure, shortened: as §1

[26] = target: Neu5Gc(a2-8)Neu5Gc(a2-6)Gal(b1-4)GlcNAc
Procedure, shortened: as §1

[27] = target: Neu5Gc(b2-6)Gal(b1-4)GlcNAc
Procedure, shortened: as §1

B1: Epa1-NP-mutant-Y228W (Candida glabrata), Q6VBJ0 (protein)
chain: MILNPALFLNKCVCIYTTLILLLLTNGGYATSSNDISLASKDPTTFPLGCSPDITTPKKGLSMELYSYDFRKKGSYPCWDAAYLDPNYPRTGYKSHRLLAKVDGVTGNINFYYHATKGCTPQLGHLPASYNYPKPLTMTNFTMLLYGYFRPKVTGFHTFTISADDLLFVNFGAGNAFDCCRRDSSADHFGNYQAYAIWGSKTAKDELTVHLDAGVYYPIRLFYNNREWDGALSFTFKTESNENTVSDFSEYFFSLDDTEEGCPGLISYDSSCASVKTSKIIGIDYHTETPNENLVPITKTIYHLGIPCTGTTTTPLCGSGFYDPLANKCVTINTSSTSSVTKTTSHTTSKEVSFHSSISSQKTLIPKSIPSPYGPIKSQSIPTEMETSSEISSSEYAFSDVISTPSHSPYTKKHSSLNSSSYTSTVIHSLTSYSISQGIFSTSLSEQNITSKSSTDKFSTATSMSNNITQSSIIISQFSTNNENYTTTSMHTSSDKISTETLNNSISTTTSILFSNSSTILKNNTTIISSDKDTHYHPVNPTIVCSTNKTEIICASITQPSISNSNNHWSSSVLKFNSTTVRSTLPSSAGSNETSINVPFSSSTESNTSTSSTSTSNSKMVRSTLPSSAGSNETSISVPFSSSTESNTSTSSTSTSNSKMVRSTLPSSAGSNETSINVPFSSSTESNTSTSSTSTSNSKTVRSTPFSSAGIIMTSLSQRNNKSASSYASSNSKCYNTADSCRKVHSTPSYLLTSSYTSEGVDYDCSLVSTKLKINDTNCVNNKHTTKSCLKTSVTTTIPTLEIKTARKSSSNTIGLHSYPTSSPNKSISSAPIIGYISSFKTIKTASPSYQTSDLTTITTITSLNNPGSTAVENTHESNDKSRKTSSNDISSKHSVIKETKDAVESSNKSHQTNTLKCSSIIIASSSHNSYESLGGTTLTLTLSKVYSPQNNDTLPFLEISEVNPSRTVLPESSKMMQYLTSTEERNKTARNTIATNIVSISTFHFEGEGNAIRMGYTQLLLMLIGIIVMNIGT
- glycan array binding signal (z-score) (Neu5Ac(a2-8)Neu5Ac): -0.272
- glycan array binding signal (z-score) [1]: -0.364
- glycan array binding signal (z-score) [2]: -0.095
- glycan array binding signal (z-score) [3]: -0.151
- glycan array binding signal (z-score) [4]: -0.369
- glycan array binding signal (z-score) [5]: 0.355
- glycan array binding signal (z-score) [6]: -0.26
- glycan array binding signal (z-score) [7]: -0.096
- glycan array binding signal (z-score) [8]: -0.257
- glycan array binding signal (z-score) [9]: -0.185
- glycan array binding signal (z-score) [10]: -0.209
- glycan array binding signal (z-score) [11]: 0.046
- glycan array binding signal (z-score) [12]: -0.494
- glycan array binding signal (z-score) [13]: -0.415
- glycan array binding signal (z-score) (Neu5Ac(b2-6)GalNAc): 0.033
- glycan array binding signal (z-score) [14]: -0.367
- glycan array binding signal (z-score) [15]: -0.341
- glycan array binding signal (z-score) [16]: -0.174
- glycan array binding signal (z-score) [17]: -0.369
- glycan array binding signal (z-score) [18]: -0.024
- glycan array binding signal (z-score) (Neu5Gc(a2-3)Gal(b1-4)Glc): -0.105
- glycan array binding signal (z-score) [19]: -0.19
- glycan array binding signal (z-score) [20]: -0.218
- glycan array binding signal (z-score) [21]: -0.107
- glycan array binding signal (z-score) [22]: -0.138
- glycan array binding signal (z-score) (Neu5Gc(a2-6)GalNAc): -0.318
- glycan array binding signal (z-score) [23]: -0.194
- glycan array binding signal (z-score) [24]: -0.269
- glycan array binding signal (z-score) [25]: -0.388
- glycan array binding signal (z-score) [26]: -0.112
- glycan array binding signal (z-score) [27]: -0.105
